From the supplement of paper PMC4967469
A lower IC50 marks a more sensitive line; a limit (>, <) means that the fit lies beyond the doses tested. The AUC spans the tested range (256-fold, ending at the top dose) of the same fit; values near 1 show little effect. For some of these results: A top dose marked as inferred is not printed in the source and was worked back from the curve model. For some of these results: An entry number marks a drug with two screens in the source, which often give different values.

How the values were obtained:
Test in all cases: Viability of human cancer cell lines after 72 h of drug (GDSC screen)
5-Fluorouracil = compound: O=c1[nH]cc(F)c(=O)[nH]1 [5-Fluorouracil]; settings: top dose 32 µM; top dose inferred
Protocol: (§1)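 Human cancer cell lines in 384-well plates, medium with 10% serum, drug for 72 h over a 256-fold dose range (nine 2-fold or five 4-fold steps up to the top dose). Adherent lines were fixed and stained with the nucleic acid dye Syto60, suspension lines read with resazurin; signal relative to control wells, capped at 0 and 100%. One two-parameter sigmoid per drug and line, fitted in a mixed model over all curves with the slope shared within a line.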

OSU-03012 = compound: NCC(=O)Nc1ccc(-n2nc(C(F)(F)F)cc2-c2ccc3c(ccc4ccccc43)c2)cc1 [OSU-03012]; settings: top dose 16 µM; top dose inferred
Protocol: as §1

JNK-9L = compound: Fc1cc(-c2ccnc(Nc3ccc(-n4cnc(N5CCOCC5)n4)cc3)n2)cc(N2CCOCC2)c1 [JNK-9L]; settings: top dose 5.12 µM; top dose inferred
Protocol: as §1

RDEA119 = compound: COc1cc(F)c(F)c(Nc2ccc(I)cc2F)c1NS(=O)(=O)C1(C[C@H](O)CO)CC1 [RDEA119]; settings: top dose 5 µM, top dose inferred
Protocol: as §1

AC220 = compound: CC(C)(C)c1cc(NC(=O)Nc2ccc(-c3cn4c(n3)sc3cc(OCCN5CCOCC5)ccc34)cc2)no1 [AC220]; settings: top dose 1.024 µM; top dose inferred
Protocol: as §1

CUDC-101 = compound: C#Cc1cccc(Nc2ncnc3cc(OC)c(OCCCCCCC(=O)NO)cc23)c1 [CUDC-101]; settings: top dose 5.12 µM; top dose inferred
Protocol: as §1

QS11 = compound: OC[C@H](Cc1ccccc1)Nc1nc(Oc2ccc3c(c2)CCC3)nc2c1ncn2Cc1ccc(-c2ccccc2)cc1 [QS11]; settings: top dose 10.24 µM
Protocol: as §1

Cell Line	AUC (5-Fluorouracil)	IC50 (5-Fluorouracil) [nM]	AUC (OSU-03012)	IC50 (OSU-03012) [nM]	AUC (JNK-9L)	IC50 (JNK-9L) [nM]	AUC (RDEA119; screen: GDSC drug entry 1014)	IC50 (RDEA119; screen: GDSC drug entry 1014) [nM]	AUC (RDEA119; screen: GDSC drug entry 1526)	IC50 (RDEA119; screen: GDSC drug entry 1526) [nM]	AUC (AC220)	IC50 (AC220) [nM]	AUC (CUDC-101)	IC50 (CUDC-101) [nM]	AUC (QS11)	IC50 (QS11) [nM]
KU812 (chronic myeloid leukaemia, suspension)	0.977	> 32000	0.721	3970	0.512	343	0.405	176	0.459	244	0.988	> 1020	0.022	< 20	0.5	
KU-19-19 (bladder, adherent)	0.982	> 32000	0.984	> 16000	0.781	2120	0.346	117	0.573	495	0.987	> 1020	0.653	850	0.956	> 10200
KURAMOCHI (ovary, adherent)	0.907	> 32000	0.592	1870	0.58	548	0.91	> 5000	0.883	> 5000	0.98	> 1020	0.652	909	0.776	4730
KY821 (leukaemia, suspension)	0.849	19500	0.848	9680	0.797	2070	0.432	209	0.906	> 5000	0.989	> 1020	0.598	573	0.985	> 10200
KYM-1 (rhabdomyosarcoma, adherent)	0.978	> 32000	0.84	8800	0.525	371	0.964	> 5000	0.966	> 5000	0.991	> 1020	0.76	1570	0.911	> 10200
KYSE-50 (oesophagus, adherent)	0.877	27400	0.47	833	0.426	205	0.966	> 5000	0.941	> 5000	0.988	> 1020	0.565	475	0.815	5010
KYSE-70 (oesophagus, adherent)	0.912	> 32000	0.592	1840	0.616	689			0.883	> 5000	0.984	> 1020	0.747	1770	0.886	> 10200
KYSE-140 (oesophagus, adherent)	0.982	> 32000	0.567	1570	0.59	583	0.847	4420			0.983	> 1020	0.977	> 5120	0.818	6800
KYSE-150 (oesophagus, adherent)	0.792	13900	0.615	2040	0.608	623	0.841	3280	0.96	> 5000	0.989	> 1020	0.755	1680	0.861	8110
KYSE-180 (oesophagus, adherent)	0.556	2820	0.608	1960	0.462	254			0.968	> 5000	0.988	> 1020	0.473	271	0.875	9290
KYSE-220 (oesophagus, adherent)	0.922	> 32000	0.754	5670	0.606	635	0.843	3860	0.831	3420	0.982	> 1020	0.602	620	0.948	> 10200
KYSE-270 (oesophagus, adherent)	0.77	10500	0.634	2200	0.475	276			0.928	> 5000	0.984	> 1020	0.572	488	0.677	1840
KYSE-410 (oesophagus, adherent)	0.829	21800	0.585	1740	0.597	601	0.709	1270			0.984	> 1020	0.733	1560	0.818	6290
KYSE-450 (oesophagus, adherent)	0.504	2040	0.614	2020	0.491	303	0.89	> 5000	0.942	> 5000	0.987	> 1020	0.379	152	0.869	8570
KYSE-510 (oesophagus, adherent)	0.856	19300	0.501	1010	0.575	493	0.964	> 5000	0.962	> 5000	0.991	> 1020	0.661	820	0.779	3470
KYSE-520 (oesophagus, adherent)	0.944	> 32000	0.823	14100	0.607	698	0.784		0.837	> 5000	0.978	> 1020	0.72	1700	0.964	> 10200
